Laboratory results from patent publication US20230416360A1 (SIMCERE ZAIMING PHARMACEUTICAL, published 2023).

T1: human CD22-ECD-His (human, UniProt P20273 20-687)
T1 construct: Made in HEK293E, purified on nickel column; also called hCD22-ECD-His; recombinant human CD22-ECD His; not shown: His tag
T1 sequence: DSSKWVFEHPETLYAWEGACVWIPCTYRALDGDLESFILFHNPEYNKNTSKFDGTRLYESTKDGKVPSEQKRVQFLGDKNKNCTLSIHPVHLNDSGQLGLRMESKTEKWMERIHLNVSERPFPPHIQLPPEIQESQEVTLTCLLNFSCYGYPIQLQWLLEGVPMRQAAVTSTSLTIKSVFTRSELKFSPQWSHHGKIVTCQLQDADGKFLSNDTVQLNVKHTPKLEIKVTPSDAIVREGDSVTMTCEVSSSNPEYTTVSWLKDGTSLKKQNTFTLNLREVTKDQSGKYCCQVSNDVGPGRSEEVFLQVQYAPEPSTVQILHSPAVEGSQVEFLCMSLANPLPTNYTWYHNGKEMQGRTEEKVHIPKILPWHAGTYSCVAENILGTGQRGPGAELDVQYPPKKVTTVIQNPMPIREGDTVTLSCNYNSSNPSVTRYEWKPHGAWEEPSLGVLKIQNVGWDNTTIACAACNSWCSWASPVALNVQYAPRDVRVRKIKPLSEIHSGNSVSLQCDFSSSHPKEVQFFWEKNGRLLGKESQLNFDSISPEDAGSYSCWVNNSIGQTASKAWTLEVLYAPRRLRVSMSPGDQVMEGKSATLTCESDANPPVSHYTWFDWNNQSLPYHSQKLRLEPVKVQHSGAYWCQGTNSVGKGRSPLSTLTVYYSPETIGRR

T2: murine CD22-ECD-His (mouse, UniProt P35329 22-708)
T2 construct: extracellular domain; Bought; also called mouse CD22; murine CD22 protein
T2 sequence (looked up): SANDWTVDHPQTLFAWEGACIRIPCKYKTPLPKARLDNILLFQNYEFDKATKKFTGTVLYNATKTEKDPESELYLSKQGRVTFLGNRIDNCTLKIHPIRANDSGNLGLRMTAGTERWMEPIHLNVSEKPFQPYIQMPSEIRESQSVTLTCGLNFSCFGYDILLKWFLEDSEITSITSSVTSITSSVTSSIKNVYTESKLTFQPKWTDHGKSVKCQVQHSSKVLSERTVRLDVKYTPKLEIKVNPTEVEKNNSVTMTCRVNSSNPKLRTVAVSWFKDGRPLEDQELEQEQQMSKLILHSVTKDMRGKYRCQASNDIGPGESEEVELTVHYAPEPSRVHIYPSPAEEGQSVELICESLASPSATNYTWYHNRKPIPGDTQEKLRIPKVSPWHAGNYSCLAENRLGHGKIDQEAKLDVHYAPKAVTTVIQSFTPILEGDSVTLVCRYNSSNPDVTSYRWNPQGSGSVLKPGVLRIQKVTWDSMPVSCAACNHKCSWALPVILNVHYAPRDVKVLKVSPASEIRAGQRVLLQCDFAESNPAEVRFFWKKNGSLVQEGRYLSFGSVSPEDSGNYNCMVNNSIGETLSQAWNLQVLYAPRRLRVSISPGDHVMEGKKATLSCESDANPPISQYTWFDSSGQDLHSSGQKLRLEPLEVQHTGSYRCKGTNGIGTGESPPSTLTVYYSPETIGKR


How the values were obtained:
[1] = target: T3, cynomolgus monkey CD22 on peripheral blood B cells (cynomolgus monkey (Macaca fascicularis)); experiment: FACS, cynomolgus PBMC, CD20+ B cells, antibody 100 nM
T3 construct: whole, on cells; also called cynomolgus monkey B cells
Description: (§1) After the cell suspension was centrifuged, the cells were resuspended in PBS containing 1% BSA, and then the cells were counted. […] After washing the cells three times, APC-labeled secondary antibody anti-human IgG Fc (catalog number: 409306, purchased from Biolegend) was added. After incubation at room temperature in the dark for 30 minutes, the cells were washed 5 times, gently resuspended with PBS containing 1% BSA, and detected and analyzed by FACS (FACS Canto™, purchased from BD Company).

[2] = target: T1, human CD22-ECD-His; experiment: ELISA, coated hCD22-ECD-His, antibody 0.01 nM
Description: (§2) The plate was sealed with plastic film and incubated overnight at 4° C., the plate was washed 2 times with PBS the next day, and then a blocking solution [PBS+2% (w/w) BSA] was added for blocking at room temperature for 2 hours. […] After incubation at 37° C. for 2 hours, the plate was washed 3 times with PBS. HRP (horseradish peroxidase)-labeled secondary antibody (purchased from Sigma, catalog number: A0170) was added, and incubated at 37° C. for 2 hours, and the plate was washed 5 times with PBS. TMB substrate was added at 50 μl/well, and incubated at room temperature for 30 minutes, then a stop solution (1.0 N HCl) was added at 50 μl/well.

[3] = target: T2, murine CD22-ECD-His; experiment: ELISA, coated mouse CD22, antibody 0.01 nM
Description: as §2

[4] = target: T1, human CD22-ECD-His; experiment: SPR (Biacore), antibody captured on Protein A, hCD22-ECD-His analyte
Description: Sample buffer and running buffer were HBS-EP+(10 mM HEPES, 150 mM NaCl, 3 mM EDTA, 0.05% surfactant P20) (GE Healthcare; BR-1006-69). The flow-through cell was set to 25° C. The sample block was set to 16° C. Both were pretreated with the running buffer. In each cycle, the antibody to be tested was first captured with a Protein A chip, then a single concentration of CD22 antigen protein was injected. The binding and dissociation process of the antibody and the antigen protein was recorded, and finally Glycine pH 1.5 (GE Healthcare; BR-1003-54) was used to complete chip regeneration. […] The concentration started from 200 nM (see the detailed results for the actual concentration in the test) and was diluted at 1:1, making a total of 5 concentrations. The dissociation phase was monitored for up to 600 s and was triggered by switching from sample solution to running buffer. The surface was regenerated by washing with a 10 mM of glycine solution (pH 1.5) for 30 s at a flow rate of 30 μL/min. Bulk refractive index difference was corrected by subtracting the response obtained from the goat anti-human Fc surface. Blank injection was also subtracted (=double reference). For calculation of apparent KD and other kinetic parameters, Langmuir 1:1 model was used.

[5] = target: T3, cynomolgus monkey CD22 on peripheral …; experiment: FACS, cynomolgus PBMC, CD20+ B cells, antibody 10 nM
Description: as §1

[6] = target: T1, human CD22-ECD-His; experiment: ELISA, antibody coated 2 ug/mL, hCD22-ECD-His titrated
[7] = target: T1, human CD22-ECD-His; experiment: ELISA, coated hCD22-ECD-His, antibody 0.0001 nM
Description: as §2

| Binder | Proportion of VHH-Fc antibody positive cells to B cells (%) [1] [%] | OD450 [2] | OD450 [3] | Kd [4] [nM] | koff [4] [s⁻¹] | kon [4] [M⁻¹ s⁻¹] | Proportion of VHH-Fc antibody positive cells to B cells (%) [5] [%] | EC80 [6] [nM] | OD450 [7] |
| --- | --- | --- | --- | --- | --- | --- | --- | --- | --- |
| S002-NB150-2 VHH-Fc (Fc fusion, VHH cloned into vector BI3.4-huIgG1 (hinge and human IgG1 Fc), made in HEK293E; also called 5002-NB150-2) QVQLVESGGGLVQPGGSLRLSCAASGSWFNIAMGWFRQAPGKEREFVAGIRWSDSKTYYADSVKGRFTISGDNAKNTTYLQMNSLKPEDTAVYYCAAQRYYRGSYNRQTNYDHWGQGTQVTVSS[human IgG1 Fc with changes cut from this listing] | 89 | 1.15 | 0.05 | 2.4 | 7.61e-05 | 31700 | 80 | 1.73 | 0.26 |
| S002-NB150-5 VHH-Fc (Fc fusion, VHH cloned into vector BI3.4-huIgG1 (hinge and human IgG1 Fc), made in HEK293E; also called 5002-NB150-5) QLQLVESGGGLVQAGGSLRLSCVGSGDRVSIALMGWFRQAPGKEREFVAAISPSGGRITYSDSVKGRFTISRDNAKNTVYLQMNSLKRDDTAVYVCAANFRGYLSSSRGSDYAYWGQGTQVTVSS[human IgG1 Fc with changes cut from this listing] | 36 | 1.1 | 0.05 | 3.71 | 0.000309 | 83200 | 3 | 3.73 | 0.24 |
| S002-NB150-40 VHH-Fc (Fc fusion, VHH cloned into vector BI3.4-huIgG1 (hinge and human IgG1 Fc), made in HEK293E; also called 5002-NB150-40) QVQLVESGGGLVQDGGSLRLSCAASGLTFSFYNMGWFRQAPGKEREFVAAISQSGLSTHYADSMKGRFTISRDNAKNTVYLQMNSLNPVDTAAYYCAAGRRGYLASTTNDYEYWGQGTQVTVSS[human IgG1 Fc with changes cut from this listing] | 3 | 0.68 | 0.05 | 6.27 | 0.000541 | 86300 | 0 | 2.4 | 0.15 |
| S002-NB150-42 VHH-Fc (Fc fusion, VHH cloned into vector BI3.4-huIgG1 (hinge and human IgG1 Fc), made in HEK293E; also called 5002-NB150-42) QVQLVESGGGLVQAGDSLKLSCLASGITFSSYYMSWFRQAPGKEREFVAGVGRSGAPSHHADSVKGRFTISRDNAKSAVYLQMNSLQPEDTAVYFCAAKWMAASTTVADYWGQGTQVTVSS[human IgG1 Fc with changes cut from this listing] | 80 | 0.93 | 0.05 | 2.16 | 0.000423 | 196000 | 36 | 2.27 | 0.12 |

Further lines, results first:

| Proportion of VHH-Fc antibody positive cells to B cells (%) [1] [%] | OD450 [2] | OD450 [3] | Kd [4] [nM] | koff [4] [s⁻¹] | kon [4] [M⁻¹ s⁻¹] | Proportion of VHH-Fc antibody positive cells to B cells (%) [5] [%] | EC80 [6] [nM] | OD450 [7] | Binder |
| --- | --- | --- | --- | --- | --- | --- | --- | --- | --- |
| 22 | 0.64 | 0.06 | 2.25 | 0.000562 | 249000 | 5 | 2.8 | 0.15 | S002-NB151-66 VHH-Fc (Fc fusion, VHH cloned into vector BI3.4-huIgG1 (hinge and human IgG1 Fc), made in HEK293E) QVQLVESGGGLVQAGGSLRLACAASGDTVSIYYMGWFRQAPGKEREFVGALSASGQFTDHADSVKGRFTISRDDAQNTVFLHMNDLKPEDTAVYYCAVQRYGWVYRTDKTMYNYWGQGTQVTVSS[human IgG1 Fc with changes cut from this listing] |
| 2 | 0.59 | 0.07 | 29 | 0.00174 | 60000 | 2 | 4 | 0.13 | S002-NB151-82 VHH-Fc (Fc fusion, VHH cloned into vector BI3.4-huIgG1 (hinge and human IgG1 Fc), made in HEK293E; also called 5002-NB151-82) EVQVVESGGGLVQAGDSLRLSCTTSGRTFYGDYIAWFRQAPGKEREFVAAIAVRGRGTFYGDSVKGRFTISRDNAENTLSLQMNSLKPEDTAVYYCAADAGSYASRGFPVRETGRYDYWGQGTQVTVSS[human IgG1 Fc with changes cut from this listing] |
| 58 | 1 | 0.05 | 3.7 | 0.000407 | 110000 | 16 | 1.6 | 0.13 | S002-NB150-57 VHH-Fc (Fc fusion, VHH cloned into vector BI3.4-huIgG1 (hinge and human IgG1 Fc), made in HEK293E; also called 5002-NB150-57) QVQLVESGGGLVQAGDSLRLSCAVTGRAYSRSDMGWFRQAPGKEREIVAVITFGGGTDYADSVKGRFTISSEDTKNTLYLQMNSLQPEDTAVYYCAAGFRGSRWSTAARRKEDDYAFWGQGTQVTVSS[human IgG1 Fc with changes cut from this listing] |
| 40 | 0.69 | 0.05 | 5.97 | 0.00052 | 87300 | 10 | 11.1 | 0.11 | S002-NB151-36 VHH-Fc (Fc fusion, VHH cloned into vector BI3.4-huIgG1 (hinge and human IgG1 Fc), made in HEK293E; also called 5002-NB151-36) QVQLVESGGGLVQAGGSLRLSCAASGLTFSYYGMGWFRQAPGKEREFVAAINWSGTSTYYADSVKDRFTVSRDNAKNTAYLHMNNLKPEDTAVYYCAARKYSSSQAMGLPNDIDYWGQGTQVTVSS[human IgG1 Fc with changes cut from this listing] |
| 19 | 1.08 | 0.08 | 8.68 | 0.00207 | 239000 | 4 | 17.6 | 0.17 | S002-NB151-64 VHH-Fc (Fc fusion, VHH cloned into vector BI3.4-huIgG1 (hinge and human IgG1 Fc), made in HEK293E; also called 5002-NB151-64) QVQLVESGGGLVQPGGSLTLSCAASGFDFSFYTMTWVRQAQGKGLEWVSTISTGGGGSNYADSVKGRFTISRDNAKKTLYLQMTSLKPEDTAVYYCASHRRGYMFVSSRKNEYDYWGRGTQVTVSS[human IgG1 Fc with changes cut from this listing] |
